Results on 83 variants are retold here after the RNAGym collection of RNA variant scans (doi:10.1093/nar/gkz1192).

The chains are these.
B1: CPEB3 Ribozyme (parent)
chain: UAACAGGGGGCCACAGCAGAAGCGUUCACGUCGCAGCCCCUGUCAGAUUCUGGUGAAUCUGCGAAUUCUGCUGUAUAUCUC

The source gives no read counts; variants with many changes may rest on few reads.

Variants of B1 are the subject of this data set. As to the kind of experiment: self-cleavage, relative activity (ratio to wild type); higher = more cleavage; in vitro, sequencing. The method, boiled down:
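Libraries of CPEB3 self-cleaving ribozyme mutants came from rounds of error-prone PCR and carried barcodes, which DNA sequencing matched to variants. In vitro transcription used T7 RNA polymerase at 37°C for 5 hours, with a further 15 min in DNase I before EDTA stopped the reaction; the ribozymes cleaved during both steps. The RNA was reverse transcribed with template switching and sequenced on Illumina. Relative activity is the cleaved/total read fraction of a variant divided by that of the unmutated ribozyme, averaged over three batches with at least 5 reads.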
Turning to A3G A35U U41C, the self-cleavage turned out to be 0.66.

As for A3G A28G A35U U41A A75U, the self-cleavage was determined as 0.63.

With A3G A18U U26A U60A G70A, the self-cleavage stood at 0.08.

For the variant A3G A13U C34A U58C U72C, the self-cleavage came out at 0.13.

For the variant A3G A20U A47G U67C, the self-cleavage was found to be 0.29.

As for A3G A15G U51C U66A, the self-cleavage amounted to 0.56.

Turning to A3G A47U A57G U72A, the self-cleavage stood at 0.16.

In the case of A3G A64U U66C, the self-cleavage was determined as 0.25.

Turning to A3G A18G U76A, the self-cleavage was found to be 0.24.

Regarding A3G A13G U74A, the self-cleavage worked out at 1.09.

A3G A13U A45G U54A: the self-cleavage worked out at 1.05.

Consider A3G A56G A57G U60A, for which the self-cleavage was 0.27.

As for A3G A20G U26C G53A U74C, the self-cleavage was 0.46.

In the case of A3G A45U U72C, the self-cleavage stood at 0.45.

In the case of A3G A15U G33A U41G A77U, the self-cleavage turned out to be 0.1.

For the variant A3G A13U A28G A57G, the self-cleavage is 0.51.

For A3G A20G U31C C32U A77G, the self-cleavage was found to be 0.17.

With A3G A13G U76A, the self-cleavage came out at 1.05.

Consider A3G A13U A64U, for which the self-cleavage turned out to be 0.44.

For A3G A13U U54C U58A U69C U80C, the self-cleavage was found to be 0.18.

Turning to A3G A15U A35U U41C U60A U72A, the self-cleavage came out at 0.23.

As for A3G A21G U76A, the self-cleavage came to 0.91.

For A3G A18G A35U U43A A56G A57G U72A, the self-cleavage was 0.24.

Turning to A3G A35G A75C, the self-cleavage was 1.11.

On to A3G A18G U31C U67G U80A, for which the self-cleavage amounted to 0.14.

In the case of A3G C4G A15G A20U A47G U58C C81U, the self-cleavage worked out at 0.21.

As to A3G A35U A75U, the self-cleavage worked out at 0.85.

Regarding A3G A35U U48C G52A U66C C68G, the self-cleavage amounted to 0.21.

Consider A3G A15G U25A U67C, for which the self-cleavage was 0.35.

For A3G A47C U49C U67A A77G, the self-cleavage stood at 0.07.

Regarding A3G A20U U67C, the self-cleavage came to 0.13.

For A3G A20G U25C A28U U49C A57G U69A, the self-cleavage turned out to be 0.29.

As for A3G A35U G53U A56G A65G, the self-cleavage was found to be 0.1.

Turning to A3G A64U A77G, the self-cleavage came to 0.38.

On to A3G A13U U25G C29U A64C, for which the self-cleavage turned out to be 0.27.

On to A3G A15G U26C G30U C50A A57C, for which the self-cleavage came out at 0.21.

Consider A3G A13U U31C U58C U72C, for which the self-cleavage was determined as 0.21.

In the case of A3G A20G U26C A35G U78C, the self-cleavage amounted to 0.94.

As for A3G A20U U69A, the self-cleavage was found to be 0.21.

As for A3G A15U U41A C50A A56G, the self-cleavage is 0.07.

Consider A3G A35U U49C U51A A56G U58C U80A, for which the self-cleavage came out at 0.07.

With A3G A35U U48C U54A U69C U80G, the self-cleavage was determined as 0.15.

Take A3G A35G G61C: the self-cleavage was 1.02.

As for A3G A15G U26C C37U U72A C79U, the self-cleavage stood at 0.04.

As to A3G A15U U41C A56C U72A, the self-cleavage is 0.23.

On to A3G A21G U49C U54C, for which the self-cleavage turned out to be 0.31.

As for A3G A15U G42C A56G A64G U66C, the self-cleavage was determined as 0.19.

With A3G C4G A5G, the self-cleavage came to 0.7.

For A3G A35U G42A A75U, the self-cleavage was 0.23.

On to A3G A15G A18U U43C, for which the self-cleavage amounted to 0.11.

For the variant A3G A13U A28G, the self-cleavage was found to be 0.8.

As for A3G A13U U26A A28U, the self-cleavage turned out to be 0.61.

Take A3G A20G A35U U66C: the self-cleavage was 0.22.

Regarding A3G A18U U25C A47G U67A A75U, the self-cleavage was determined as 0.06.

As to A3G A15G A45U A75G U78C, the self-cleavage came out at 0.26.

For A3G A47U A56U A64G U72A, the self-cleavage amounted to 0.08.

As to A3G A15U U26C A35U, the self-cleavage worked out at 0.23.

As to A3G A21G U51C U60A G63A U74C, the self-cleavage stood at 0.28.

For the variant A3G A21G A35G U60A A64U U72C, the self-cleavage was 0.47.

Regarding A3G A21G U25C C34U U49C C50A, the self-cleavage amounted to 0.09.

For the variant A3G A35U A56U U76A U78C, the self-cleavage came to 0.77.

Consider A3G A35U U51A U60A, for which the self-cleavage turned out to be 0.36.

In the case of A3G A15U U41A A45G A65G U72C, the self-cleavage turned out to be 0.15.

Consider A3G A15G A35U U54C A64U A65G U67C, for which the self-cleavage came to 0.19.

As for A3G A35U C38U A77G, the self-cleavage amounted to 0.23.

As to A3G A18G U43G, the self-cleavage stood at 0.75.

In the case of A3G A45G U48C U69G, the self-cleavage is 0.15.

Turning to A3G A13U G22C A47U G61U, the self-cleavage was 0.11.

Consider A3G A45G G70C, for which the self-cleavage stood at 0.2.

With A3G A18G U25C C29A U41A C68U, the self-cleavage is 0.08.

For the variant A3G A47G U80C, the self-cleavage turned out to be 1.05.

On to A3G A18U U48C, for which the self-cleavage was found to be 0.33.

Turning to A3G A65G U76A, the self-cleavage was determined as 0.29.

In the case of A3G A21G U41C U60G A64U, the self-cleavage came to 0.11.

As for A3G A20G A28G U48C, the self-cleavage came out at 0.42.

As to A3G A20U A65G G73A U78A, the self-cleavage turned out to be 0.79.

Take A3G A15U U25A U41C U58C G73A: the self-cleavage turned out to be 0.04.

With A3G A28G C32A U41C, the self-cleavage is 0.16.

For the variant A3G A13U C23U A28U G36U, the self-cleavage worked out at 0.12.

On to A3G A13G G33A C38U A56U A64G U66C, for which the self-cleavage came out at 0.1.

A3G A20G A35C A56U A65U: the self-cleavage worked out at 0.12.

In the case of A3G A35G G36U A45U U51A U69C, the self-cleavage was found to be 0.16.

Regarding A3G A15G C29U U41C U54C A77G U80C, the self-cleavage was found to be 0.26.
